{"source": "paper PMC6451091", "note": "The list shows a part of the results. For part of these data: At the low end of the ranking, values are background and their order means little. For part of these data: Measured with an extract: partners may take part in the binding.", "data": [{"target": "PU.1 (IVT) (UniProt P17947)", "experiment": "protein-binding microarray (PBM)", "conditions": "20 mM HEPES pH 7.9, 100 mM NaCl, 1 mM DTT, 0.2 mg/mL BSA, 0.02% Triton X-100, 2% milk, 0.4 mg/mL salmon testes DNA; 1 h; temperature not stated; high values mean tight binding; double strand, one strand shown; sequences stand for … in GCCTAGCAC…GTGCTAGGTCTTGATTCGCTTGACGCTGCTG", "units": {"binding signal": "z-score"}, "values": [{"sequence": "AGAAAGAGGAAGTCCTCTCT", "binding signal": 8.3}, {"sequence": "GAAAAGAGGAACTGTGCAGG", "binding signal": 6.68}, {"sequence": "TACAAGAGGAAGTGAATTTT", "binding signal": 5.76}, {"sequence": "CAAAAAGGGAAGTGAGGAAG", "binding signal": 6.17}, {"sequence": "CAAATGAGGAACTGATGCCG", "binding signal": 5.51}, {"sequence": "TAAAGGAGGAAGTAAGGGAG", "binding signal": 5.91}, {"sequence": "GAAATGAGGAAGTGAAATTG", "binding signal": 8.42}, {"sequence": "GGAAAGAGGAACTGGCTTGT", "binding signal": 6.29}, {"sequence": "GAAAAAGGGAAGTGAGTTGT", "binding signal": 7.63}, {"sequence": "GAAAAGAGGAAGTGGAATTT", "binding signal": 8.92}, {"sequence": "AGCAGGAGGAAGTGAGCTCC", "binding signal": 3.78}, {"sequence": "AAAAAGAGGAAGTCAGTTTG", "binding signal": 8.4}, {"sequence": "AGAAAGAGGAAGTGTTTATA", "binding signal": 8.43}, {"sequence": "CAAAAAGGGAAGTGGATGCC", "binding signal": 6.51}, {"sequence": "TGGAAAAGGAAGTACTGTGA", "binding signal": 3.75}, {"sequence": "ACAAAAAGCAACTGTGCCCC", "binding signal": -0.297}, {"sequence": "GGGAGGAGGAAGTGGGGAGT", "binding signal": 4.26}, {"sequence": "AAAGAAAGGAACTGGCTAGA", "binding signal": 1.14}, {"sequence": "CAATAGAGGAAGTGGTTAAG", "binding signal": 6.51}, {"sequence": "GAAAACAGGAAGTCACATAG", "binding signal": 7.27}, {"sequence": "GAAAAGAGGAAGTGTGAGAC", "binding signal": 7.97}, {"sequence": "ACTAAAAGGAACTGTGCCCC", "binding signal": 0.777}, {"sequence": "AAAAAAAGGAACCGGCTAGA", "binding signal": 2.65}, {"sequence": "GAAAACAGGAAGTGGGGAGG", "binding signal": 6.96}, {"sequence": "GAGAAGAGGAACTGAGTAGA", "binding signal": 3.96}, {"sequence": "AAAAAGAGGAAGTGCCCTGT", "binding signal": 8.56}, {"sequence": "CAAAGAGGGAAGTGACAGTA", "binding signal": 4.55}, {"sequence": "GGAAAGAGGAACTCTCAGCA", "binding signal": 5.92}, {"sequence": "TTACACAGGAAGTGCTGGCA", "binding signal": 2.14}, {"sequence": "GCAAAGGGGAAGTGAGAGGG", "binding signal": 5.27}, {"sequence": "AAAAAGAGGAAGTCAAATTA", "binding signal": 8.57}, {"sequence": "TATTTAAGGAAGTGGCAGTC", "binding signal": 5.3}, {"sequence": "TCTTTGAGGAAGTGAGTTTT", "binding signal": 5.74}, {"sequence": "GAAATGGGGAAGTCAGGACA", "binding signal": 6.55}, {"sequence": "TAAAGGAGGAAGTGCGAACC", "binding signal": 5.34}, {"sequence": "GGGAACAGGAACTGAGACAT", "binding signal": 2.44}, {"sequence": "ACAAAAAAGAACTGTGCCCC", "binding signal": 0.00246}, {"sequence": "AGAAAGAGGAAGTGATTGAA", "binding signal": 8.32}, {"sequence": "TGACAGAGGAAGTGAATCTC", "binding signal": 3.77}, {"sequence": "GAAAAGGGGAAGTTGGGTTG", "binding signal": 8.21}]}, {"target": "PU.1 (endogenous, THP-1 nuclear extract) (UniProt P17947)", "experiment": "nuclear extract protein-binding microarray (nextPBM)", "conditions": "20 mM HEPES pH 7.9, 100 mM NaCl, 1 mM DTT, 0.2 mg/mL BSA, 0.02% Triton X-100, 2% milk, 0.4 mg/mL salmon testes DNA; 1 h; temperature not stated; high values mean tight binding; double strand, one strand shown; sequences stand for … in GCCTAGCAC…GTGCTAGGTCTTGATTCGCTTGACGCTGCTG", "units": {"binding signal": "z-score"}, "values": [{"sequence": "AGAAAGAGGAAGTCCTCTCT", "binding signal": 7.49}, {"sequence": "GAAAAGAGGAACTGTGCAGG", "binding signal": 6.59}, {"sequence": "TACAAGAGGAAGTGAATTTT", "binding signal": 6.33}, {"sequence": "CAAAAAGGGAAGTGAGGAAG", "binding signal": 6.64}, {"sequence": "CAAATGAGGAACTGATGCCG", "binding signal": 6.36}, {"sequence": "TAAAGGAGGAAGTAAGGGAG", "binding signal": 6.34}, {"sequence": "GAAATGAGGAAGTGAAATTG", "binding signal": 7.48}, {"sequence": "GGAAAGAGGAACTGGCTTGT", "binding signal": 6.58}, {"sequence": "GAAAAAGGGAAGTGAGTTGT", "binding signal": 6.97}, {"sequence": "GAAAAGAGGAAGTGGAATTT", "binding signal": 7.48}, {"sequence": "AGCAGGAGGAAGTGAGCTCC", "binding signal": 4.43}, {"sequence": "AAAAAGAGGAAGTCAGTTTG", "binding signal": 7.5}, {"sequence": "AGAAAGAGGAAGTGTTTATA", "binding signal": 7.67}, {"sequence": "CAAAAAGGGAAGTGGATGCC", "binding signal": 6.58}, {"sequence": "TGGAAAAGGAAGTACTGTGA", "binding signal": 3.3}, {"sequence": "ACAAAAAGCAACTGTGCCCC", "binding signal": -1.2}, {"sequence": "GGGAGGAGGAAGTGGGGAGT", "binding signal": 4.47}, {"sequence": "AAAGAAAGGAACTGGCTAGA", "binding signal": 1.15}, {"sequence": "CAATAGAGGAAGTGGTTAAG", "binding signal": 6.63}, {"sequence": "GAAAACAGGAAGTCACATAG", "binding signal": 7.04}, {"sequence": "GAAAAGAGGAAGTGTGAGAC", "binding signal": 7.29}, {"sequence": "ACTAAAAGGAACTGTGCCCC", "binding signal": 1.38}, {"sequence": "AAAAAAAGGAACCGGCTAGA", "binding signal": 2.78}, {"sequence": "GAAAACAGGAAGTGGGGAGG", "binding signal": 6.89}, {"sequence": "GAGAAGAGGAACTGAGTAGA", "binding signal": 4.51}, {"sequence": "AAAAAGAGGAAGTGCCCTGT", "binding signal": 7.36}, {"sequence": "CAAAGAGGGAAGTGACAGTA", "binding signal": 5.01}, {"sequence": "GGAAAGAGGAACTCTCAGCA", "binding signal": 6.12}, {"sequence": "TTACACAGGAAGTGCTGGCA", "binding signal": 2.41}, {"sequence": "GCAAAGGGGAAGTGAGAGGG", "binding signal": 6.16}, {"sequence": "AAAAAGAGGAAGTCAAATTA", "binding signal": 7.5}, {"sequence": "TATTTAAGGAAGTGGCAGTC", "binding signal": 5.31}, {"sequence": "TCTTTGAGGAAGTGAGTTTT", "binding signal": 6.06}, {"sequence": "GAAATGGGGAAGTCAGGACA", "binding signal": 6.65}, {"sequence": "TAAAGGAGGAAGTGCGAACC", "binding signal": 6.06}, {"sequence": "GGGAACAGGAACTGAGACAT", "binding signal": 2.61}, {"sequence": "ACAAAAAAGAACTGTGCCCC", "binding signal": 0.199}, {"sequence": "AGAAAGAGGAAGTGATTGAA", "binding signal": 7.41}, {"sequence": "TGACAGAGGAAGTGAATCTC", "binding signal": 3.94}, {"sequence": "GAAAAGGGGAAGTTGGGTTG", "binding signal": 7.47}]}, {"target": "T1, FLI1 (endogenous, THP-1 nuclear extract) (UniProt Q01543)", "T1 sequence": "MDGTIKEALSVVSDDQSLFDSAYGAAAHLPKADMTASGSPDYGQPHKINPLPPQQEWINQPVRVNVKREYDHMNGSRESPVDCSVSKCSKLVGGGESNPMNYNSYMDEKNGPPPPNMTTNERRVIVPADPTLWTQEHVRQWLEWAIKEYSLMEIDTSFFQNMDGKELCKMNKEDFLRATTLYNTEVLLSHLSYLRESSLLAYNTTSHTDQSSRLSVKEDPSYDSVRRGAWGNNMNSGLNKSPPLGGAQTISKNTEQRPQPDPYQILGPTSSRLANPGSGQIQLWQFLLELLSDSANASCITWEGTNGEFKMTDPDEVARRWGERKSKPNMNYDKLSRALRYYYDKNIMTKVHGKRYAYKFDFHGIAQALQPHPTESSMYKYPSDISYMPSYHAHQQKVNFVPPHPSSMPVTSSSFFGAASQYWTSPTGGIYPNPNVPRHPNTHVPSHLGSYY", "experiment": "nuclear extract protein-binding microarray (nextPBM)", "conditions": "20 mM HEPES pH 7.9, 100 mM NaCl, 1 mM DTT, 0.2 mg/mL BSA, 0.02% Triton X-100, 2% milk, 0.4 mg/mL salmon testes DNA; 1 h; temperature not stated; high values mean tight binding; double strand, one strand shown; sequences stand for … in GCCTAGCAC…GTGCTAGGTCTTGATTCGCTTGACGCTGCTG", "units": {"binding signal": "z-score"}, "values": [{"sequence": "AGAAAGAGGAAGTCCTCTCT", "binding signal": 4.05}, {"sequence": "GAAAAGAGGAACTGTGCAGG", "binding signal": 2.62}, {"sequence": "TACAAGAGGAAGTGAATTTT", "binding signal": 3.35}, {"sequence": "CAAAAAGGGAAGTGAGGAAG", "binding signal": 3.3}, {"sequence": "CAAATGAGGAACTGATGCCG", "binding signal": 2.17}, {"sequence": "TAAAGGAGGAAGTAAGGGAG", "binding signal": 2.86}, {"sequence": "GAAATGAGGAAGTGAAATTG", "binding signal": 3.74}, {"sequence": "GGAAAGAGGAACTGGCTTGT", "binding signal": 2.41}, {"sequence": "GAAAAAGGGAAGTGAGTTGT", "binding signal": 3.62}, {"sequence": "GAAAAGAGGAAGTGGAATTT", "binding signal": 4.93}, {"sequence": "AGCAGGAGGAAGTGAGCTCC", "binding signal": 2.61}, {"sequence": "AAAAAGAGGAAGTCAGTTTG", "binding signal": 4.35}, {"sequence": "AGAAAGAGGAAGTGTTTATA", "binding signal": 4.1}, {"sequence": "CAAAAAGGGAAGTGGATGCC", "binding signal": 3.4}, {"sequence": "TGGAAAAGGAAGTACTGTGA", "binding signal": 2.13}, {"sequence": "ACAAAAAGCAACTGTGCCCC", "binding signal": -1.01}, {"sequence": "GGGAGGAGGAAGTGGGGAGT", "binding signal": 2.92}, {"sequence": "AAAGAAAGGAACTGGCTAGA", "binding signal": 0.666}, {"sequence": "CAATAGAGGAAGTGGTTAAG", "binding signal": 3.42}, {"sequence": "GAAAACAGGAAGTCACATAG", "binding signal": 4.79}, {"sequence": "GAAAAGAGGAAGTGTGAGAC", "binding signal": 3.66}, {"sequence": "ACTAAAAGGAACTGTGCCCC", "binding signal": 0.483}, {"sequence": "AAAAAAAGGAACCGGCTAGA", "binding signal": 0.725}, {"sequence": "GAAAACAGGAAGTGGGGAGG", "binding signal": 4.98}, {"sequence": "GAGAAGAGGAACTGAGTAGA", "binding signal": 1.46}, {"sequence": "AAAAAGAGGAAGTGCCCTGT", "binding signal": 4.49}, {"sequence": "CAAAGAGGGAAGTGACAGTA", "binding signal": 2.13}, {"sequence": "GGAAAGAGGAACTCTCAGCA", "binding signal": 2.54}, {"sequence": "TTACACAGGAAGTGCTGGCA", "binding signal": 4.35}, {"sequence": "GCAAAGGGGAAGTGAGAGGG", "binding signal": 2.47}, {"sequence": "AAAAAGAGGAAGTCAAATTA", "binding signal": 4.13}, {"sequence": "TATTTAAGGAAGTGGCAGTC", "binding signal": 2.47}, {"sequence": "TCTTTGAGGAAGTGAGTTTT", "binding signal": 2.81}, {"sequence": "GAAATGGGGAAGTCAGGACA", "binding signal": 2.6}, {"sequence": "TAAAGGAGGAAGTGCGAACC", "binding signal": 2.77}, {"sequence": "GGGAACAGGAACTGAGACAT", "binding signal": 2.13}, {"sequence": "ACAAAAAAGAACTGTGCCCC", "binding signal": -0.394}, {"sequence": "AGAAAGAGGAAGTGATTGAA", "binding signal": 4.54}, {"sequence": "TGACAGAGGAAGTGAATCTC", "binding signal": 2.69}, {"sequence": "GAAAAGGGGAAGTTGGGTTG", "binding signal": 4.24}]}]}
